For 89 compounds, survival results are on record in PubChem BioAssay AID463173 (ICCB-Longwood Screening Facility, Harvard Medical School, 2010).

Out of some 52,000 compounds screened, about 1,700 (3.3%) were called active. Rule as the data show it: active = survival mostly below about 52% (no sharp cut-off); inactive = mostly above about 56%. This is one part of the list.

The experiment concerns Wild type. Description: growth inhibition of S. aureus wild type versus tarO mutant, primary screen, teichoic acid synthesis inhibitors, RN4220, OD600 (AID 463173). The following applies: S. aureus RN4220 wild type/DeltatarO growth, OD600, 18 h, stronger effect = lower value, screened at 18.75 µg/mL (by protocol).
For `N#C/C(=C/c1ccc(-c2ccc(S(N)(=O)=O)cc2)o1)C(=O)Nc1cc(Cl)ccc1Cl`, the survival was inactive: 107%.

As to `CCOC(=O)c1ccc(NC(=O)CN(Cc2ccc(C)cc2)S(=O)(=O)c2ccc(C)cc2)cc1`, the survival is inactive: 70%.

Regarding `COc1ccc(-n2c(SCc3nc(-c4ccc(C)cc4)no3)nnc2-c2ccccc2)cc1`, the survival was inactive: 77%.

With `CC(C)Oc1ccc(CNC(=O)CN2C(=O)CCn3nc(-c4cn(C)c5ccccc45)cc32)cc1`, the survival was inactive: 133%.

Turning to `Fc1ccccc1N1CCN(Cc2nnc(-c3ccc4c(c3)OCO4)o2)CC1`, the survival was inactive: 90%.

On to `CC1CN(C(=O)Nc2ccc(C(=O)NCc3ccccc3F)cc2)c2ccccc2S1` (centres undefined), for which the survival was inactive: 107%.

In the case of `COC(=O)c1ccc(NC(=O)CSc2n[nH]c(-c3ccccc3)n2)cc1`, the survival is inactive: 92%.

For the compound `Cc1ccc(S(=O)(=O)N2Cc3ccccc3CC2C(=O)N(C)C)cc1` (centres undefined), the survival is inactive: 102%.

Consider `Cc1ccc(C)c(N2C(=O)N(Cc3ccccc3C)c3ccccc3S2(=O)=O)c1`, for which the survival is inactive: 117%.

Turning to `Cc1ccccc1OCC(=O)Nc1ccc2oc(-c3ccc(F)cc3)nc2c1`, the survival was inactive: 134%.

On to `O=C(Nc1nc2c(Cl)cccc2s1)c1ccc(S(=O)(=O)N2CCc3ccccc32)cc1`, for which the survival was inactive: 69%.

With `COc1ccc(C)cc1NC(=O)COc1cc(=O)n(C)c2ccccc12`, the survival was inactive: 75%.

For the compound `COc1ccc(NC(=O)c2ccco2)cc1NC(=O)COc1cccc(C)c1C`, the survival is inactive: 79%.

As for `CCc1ccc(NC(=O)CN(C)S(=O)(=O)c2ccc3c(c2)c(=O)n(C)c(=O)n3C)cc1`, the survival was inactive: 132%.

As for `O=C(CSc1oc(-c2ccccc2)nc1S(=O)(=O)c1ccc(Br)cc1)c1ccccc1`, the survival was inactive: 76%.

In the case of `O=C(Oc1ccccc1)C1C2CCCCC21` (centres undefined), the survival was inactive: 106%.

For the compound `CCOC(=O)/C(C#N)=C/c1ccc(-c2ccc(Cl)c(C(=O)OC)c2)o1`, the survival was inactive: 119%.

As to `CCOC(=O)c1cc2c(=O)n3ccccc3nc2n(Cc2ccco2)c1=NC(=O)c1ccc(Br)cc1`, the survival was inactive: 86%.

As for `Cc1ccc(NC(=O)c2nnn(Cc3ccccc3)c2N)cc1C`, the survival was inactive: 72%.

Take `O=C(Nc1ccc(Br)cc1)c1ccc(F)c(S(=O)(=O)NC2CCCCCC2)c1`: the survival was inactive: 56%.

For the compound `Cc1ccccc1-c1nc(SCC(=O)NCc2ccc(F)cc2)c2c(=O)n(C)c(=O)n(C)c2n1`, the survival is inactive: 110%.

With `COC(=O)c1cc2c(ccn2-c2ccc(F)cc2)n1Cc1ccccc1`, the survival was inactive: 88%.

`COc1ccccc1N1CCN(c2nc3ccccc3n3cnnc23)CC1`: the survival was inactive: 75%.

Consider `COc1ccc(-c2nc(-c3cc4cc(Br)ccc4oc3=O)cs2)cc1`, for which the survival was inactive: 83%.

In the case of `Cc1ccc2nc(N(CCCN(C)C)C(=O)c3ccco3)sc2c1`, the survival was inactive: 72%.

Regarding `Cc1ccc(-n2nc(CO)c(C(=O)NCc3ccccn3)n2)cc1`, the survival is inactive: 89%.

For `O=C(CCn1nc(-c2ccccc2)c2ccccc2c1=O)Nc1ccccc1`, the survival is inactive: 86%.

As to `Cc1cccc(C)c1NC(=O)Nc1csc2c1CCCC2`, the survival is inactive: 78%.

With `CCn1c(CNc2nc(-c3ccccc3)cs2)nnc1SCC(=O)c1ccc(OC)cc1`, the survival is inactive: 121%.

For the compound `CCc1ccc(-n2nnc(-c3nsc(NC(=O)c4ccccc4Cl)n3)c2C)cc1`, the survival is active: 12%.

On to `CC(=O)Nc1ccc(NC(=O)c2cc(=O)c3ccccc3o2)cc1`, for which the survival was inactive: 85%.

For `Cc1cc(-c2ccc(C)c(S(=O)(=O)Nc3cccc(C)n3)c2)on1`, the survival was inactive: 70%.

On to `COc1ccc(OCc2ccc(-c3nc(C#N)c(N4CCN(c5ccccc5)CC4)o3)o2)cc1`, for which the survival is inactive: 87%.

Turning to `Cc1ccc2c(c1)N(C(=O)N1CCC(C(=O)NCc3cccc(Br)c3)CC1)CCO2`, the survival is inactive: 78%.

For `O=C(O)C(CO)NS(=O)(=O)c1ccc(F)cc1` (centres undefined), the survival was inactive: 112%.

`COc1ccc(Nc2nc3ccccc3nc2NS(=O)(=O)c2ccc(C)cc2)c(OC)c1`: the survival is inactive: 63%.

In the case of `CCOC(=O)c1cc(-c2ccccc2)n(CCC(=O)NCc2ccccc2Cl)c1C`, the survival was inactive: 82%.

Turning to `COC(=O)c1sc2cccc(F)c2c1S(=O)(=O)N1CCN(c2cccc(OC)c2)CC1`, the survival is inactive: 80%.

With `COc1cccc2cc(S(=O)(=O)c3ccc(F)c(C)c3)c(=O)oc12`, the survival is inactive: 73%.

As to `CCN(CC)c1cc(C)c2cc(NC(=O)c3cccc(OC)c3OC)ccc2n1`, the survival is inactive: 110%.

Take `O=C(COc1ccccc1F)OCc1cc(=O)n2nc(C3CCCCC3)sc2n1`: the survival was inactive: 69%.

`O=C1Nc2ccccc2Oc2cc(Oc3cccc(Cl)c3)ccc21`: the survival was inactive: 43%.

In the case of `Fc1ccc(N2CCN(c3nc4ccccc4c4nc(-c5cccnc5)nn34)CC2)cc1`, the survival was inactive: 87%.

With `Cc1nnc(N2CCCC(C(=O)NCc3ccccc3)C2)c2nn(-c3ccccc3)c(C)c12` (centres undefined), the survival is inactive: 72%.

For the compound `CCCCN(C)CCNC(=O)C1CCCN(S(=O)(=O)c2cccc3nsnc23)C1` (centres undefined), the survival was inactive: 87%.

For the compound `Cc1c(Cl)cccc1-c1ccc(CNCCCSc2nnnn2C)o1`, the survival is inactive: 67%.

`CCc1ccc(S(=O)(=O)c2cn(C)c3cc(N4CCOCC4)c(F)cc3c2=O)cc1`: the survival is inactive: 72%.

Consider `Cc1nc2nc(SCC(=O)N(C)Cc3ccccc3)nn2c(C)c1Cc1ccccc1Cl`, for which the survival is inactive: 71%.

With `Cc1cc(C)c(S(=O)(=O)N2CCC(n3c(C(F)(F)F)nc4cccnc43)CC2)c(C)c1`, the survival is inactive: 71%.

As for `Cc1cn2c(=O)cc(COc3cccc(NC(=O)c4ccc(C(C)(C)C)cc4)c3)nc2s1`, the survival is inactive: 76%.

For `O=C(Cn1nnc(-c2ccccc2)n1)N1CCCCC1`, the survival was inactive: 109%.

With `CCOC(=O)C1CCN(CC(=O)Nc2cc(C)c3c(=O)oc4ccccc4c3n2)CC1`, the survival is inactive: 119%.

Consider `C=CCc1ccccc1OCCSc1nc(-c2cccs2)nc2cc(=O)[nH]n12`, for which the survival was inactive: 72%.

Turning to `CCOc1ccc(NC(=O)c2c(C)nn(-c3ccc(F)cc3)c2-n2cccc2)cc1`, the survival is inactive: 77%.

On to `O=C(CCn1cnc2onc(-c3ccc(F)cc3)c2c1=O)Nc1ccc(F)c(Cl)c1`, for which the survival is inactive: 87%.

Turning to `CCc1c(C)sc2c1CCN(Cc1ccccc1)C2c1ccccc1` (centres undefined), the survival was inactive: 80%.

On to `O=C(Nc1ccc(OCc2cc(=O)n3c4c(sc3n2)CCCC4)cc1)c1cccc(F)c1`, for which the survival was inactive: 78%.

For the compound `C=CCN1C(=O)C(=O)/C(=C(\O)c2ccccc2)C1c1ccccc1` (centres undefined), the survival is inactive: 102%.

On to `Cc1nn(-c2ccccc2)c2nc(C3CC3)cc(C(=O)Nc3ccc(F)cc3)c12`, for which the survival is inactive: 79%.

Take `Cc1ccc(NC(=O)CN(C)S(=O)(=O)c2ccc3c(c2)n(C)c(=O)c(=O)n3C)cc1F`: the survival is inactive: 92%.

`Cc1ccc2c(c1)-c1onc(C(=O)N(C)c3cccc(C(F)(F)F)c3)c1CO2`: the survival was inactive: 121%.

Consider `c1coc(CNc2ncnc3sc4c(c23)CCCC4)c1`, for which the survival is inactive: 108%.

With `CC1(C)Cc2c(c(N3CCOCC3)nc3sc(C(=O)Nc4ccc(Cl)cc4)c(N)c23)CO1`, the survival is inactive: 65%.

With `CCOc1ccc(S(=O)(=O)Nc2cccc(-c3ccc(N4CCCC4)nn3)c2)cc1`, the survival is inactive: 129%.

Turning to `Cc1cccc(NC(=O)CSc2nc(-c3cccc(C)c3)nc3c2Cc2c(CO)cnc(C)c2O3)c1`, the survival is inactive: 115%.

As for `CCc1nc2ccc(C(=O)NCc3ccc(OC)c(OC)c3)cc2nc1CC`, the survival is inactive: 81%.

For `Cc1ccc2c(CC(=O)Nc3cccc(C(F)(F)F)c3)coc2c1`, the survival is active: 8%.

In the case of `CCOC(=O)COc1ccc(/C=C(\C#N)c2nc3ccc(C)cc3[nH]2)cc1OC`, the survival was inactive: 67%.

Consider `CCOC(=O)c1sc(N2C(=O)c3oc4ccccc4c(=O)c3C2c2ccc(C(C)(C)C)cc2)nc1C` (centres undefined), for which the survival was inactive: 62%.

`CCCCOc1ccc(C(=O)Nc2cc(-c3ccc(C)cc3)no2)cc1`: the survival was inactive: 88%.

With `Cc1ccccc1CNC(=O)Cn1c(C)c2cnn(-c3ccccc3)c(=O)c2c1C`, the survival is inactive: 81%.

Consider `Cc1oc2ncn(CC(C)C)c(=O)c2c1C(=O)NCCc1ccc(Cl)cc1`, for which the survival was inactive: 87%.

As to `Cc1cccn2c3c(c(=O)nc12)C(c1cccc(F)c1)CC(=O)N3` (centres undefined), the survival is inactive: 81%.

On to `CCC1CCCCN1Cc1c(O)ccc2c(=O)c(Oc3ccccc3Cl)c(C(F)(F)F)oc12` (centres undefined), for which the survival is inactive: 71%.

Consider `Cc1ccc(CNC(=O)c2ccc3c(c2)CCN3S(=O)(=O)c2ccccc2)cc1`, for which the survival was inactive: 84%.

Take `O=C(Cn1cnc2nc3c(cc2c1=O)CCCC3)N1CCN(c2cccc(C(F)(F)F)c2)CC1`: the survival was active: 14%.

In the case of `Cc1ccc(C)c(NC(=O)CSc2c(C)cnc3c2c(=O)n(C)c(=O)n3C)c1`, the survival is inactive: 55%.

Regarding `Cc1ccc(N(C)C(=O)CC(C)S(=O)(=O)c2ccc3c(c2)NC(=O)CO3)cc1` (centres undefined), the survival was inactive: 129%.

As to `CCc1ccc(NC(=O)Cn2ccn(-c3ccc(OC)cc3)c(=O)c2=O)cc1`, the survival was inactive: 96%.

`CCCOC(=O)C1=C(C)OC23OC(N)=C(C#N)C12C(=O)c1ccccc13` (centres undefined): the survival was inactive: 122%.

For `COc1ccc(CCNC(=O)c2csc3c2CCCCC3)c(OC)c1`, the survival is inactive: 76%.

On to `COc1ccc(Cn2c(C(=O)O)c(CNC3CCCC3)c3ccc(C)cc32)cc1`, for which the survival was inactive: 55%.

Regarding `CC(=O)c1ccc(S(=O)(=O)Nc2ccc(-c3ccc(N4CCCCC4)nn3)cc2)cc1`, the survival was inactive: 72%.

`CCC(=O)N1c2ccccc2CC1C(=O)N1CCN(c2cccc(OC)c2)CC1` (centres undefined): the survival is inactive: 65%.

`Cc1cccc(NC(=O)CC2Nc3cccc4cccc(c34)NC2=O)c1` (centres undefined): the survival is inactive: 86%.

As for `COC(=O)c1cc2oc(C)cc2n1Cc1cc(C)ccc1C`, the survival was active: -2%.

Turning to `CCc1nc(N=C(N)N)nc2ccc(C)cc12`, the survival was inactive: 97%.

Take `CCOc1ccc(NC(=O)CSc2nc(-c3cccc(Cl)c3)nc3c2Cc2c(CO)cnc(C)c2O3)cc1`: the survival was inactive: 84%.

Regarding `Cc1ccc(C)c(NC(=O)Cn2ncc3c([nH]c4ccccc43)c2=O)c1`, the survival was inactive: 45%.
